# Source: the supplement of paper PMC8728848
# The list shows a part of the results.
# B1: SBD-G4S3-Fc (protein)
# chain: MASIPSSASVQLDSYNYDGSTFSGKIYVKNIAYSKKVTVVYADGSDNWNNNGNIIAASFSGPISGSNYEYWTFSASVKGIKEFYIKYEVSGKTYYDNNNSANYQVSTGGGGSGGGGSGGGGSEFVPRDCGCKPCICTVPEVSSVFIFPPKPKDVLTITLTPKVTCVVVDISKDDPEVQFSWFVDDVEVHTAQTQPREEQFNSTFRSVSELPIMHQDWLNGKEFKCRVNSAAFPAPIEKTISKTKGRPKAPQVYTIPPPKEQMAKDKVSLTCMITDFFPEDITVEWQWNGQPAENYKNTQPIMDTDGSYFVYSKLNVQKSNWEAGNTFTCSVLHEGLHNHHTEKSLSHSPGAA
# Tests used:
# Experiment in all cases: glycan array binding signal (z-score within array); higher = stronger binding
# Settings in all cases: glycan notation: IUPAC condensed, linker removed
# [1] = target: Gal(b1-4)GlcNAc(b1-2)[Gal(b1-4)GlcNAc(b1-6)]Man(a1-6)[GlcNAc(b1-4)][Gal(b1-4)GlcNAc(b1-2)Man(a1-3)]Man(b1-4)GlcNAc(b1-4)GlcNAc
# Summary of the method: (§1)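 Columns mapping to the same glycan were averaged after glycan names were converted to IUPAC-condensed notation. The data come from 3228 arrays in the Consortium for Functional Glycomics database, limited to those with an available protein sequence. Binding is reported as a within-array Z-score averaged across arrays of one protein sequence and across linkers.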
# [2] = target: Gal(b1-4)GlcNAc(b1-2)[Gal(b1-4)GlcNAc(b1-6)]Man(a1-6)[GlcNAc(b1-4)][Gal(b1-4)GlcNAc(b1-2)[Gal(b1-4)GlcNAc(b1-4)]Man(a1-3)]Man(b1-4)GlcNAc(b1-4)[Fuc(a1-6)]GlcNAc
# Summary of the method: as §1
# [3] = target: Gal(b1-4)GlcNAc(b1-3)Gal(b1-3)GalNAc
# Summary of the method: as §1
# [4] = target: Gal(b1-4)GlcNAc(b1-3)Gal(b1-3)GlcNAc
# Summary of the method: as §1
# [5] = target: Gal(b1-4)GlcNAc(b1-3)Gal(b1-4)Glc
# Summary of the method: as §1
# [6] = target: Gal(b1-4)GlcNAc(b1-3)Gal(b1-4)GlcNAc
# Summary of the method: as §1
# [7] = target: Gal(b1-4)GlcNAc(b1-3)Gal(b1-4)GlcNAc(b1-2)Man(a1-3)[Gal(b1-4)GlcNAc(b1-3)Gal(b1-4)GlcNAc(b1-2)Man(a1-6)]Man(b1-4)GlcNAc(b1-4)GlcNAc
# Summary of the method: as §1
# [8] = target: Gal(b1-4)GlcNAc(b1-3)Gal(b1-4)GlcNAc(b1-2)Man(a1-3)[Gal(b1-4)GlcNAc(b1-3)Gal(b1-4)GlcNAc(b1-2)Man(a1-6)]Man(b1-4)GlcNAc(b1-4)[Fuc(a1-6)]GlcNAc
# Summary of the method: as §1
# [9] = target: Gal(b1-4)GlcNAc(b1-3)Gal(b1-4)GlcNAc(b1-2)[Gal(b1-4)GlcNAc(b1-3)Gal(b1-4)GlcNAc(b1-6)]Man(a1-6)[Gal(b1-4)GlcNAc(b1-3)Gal(b1-4)GlcNAc(b1-2)Man(a1-3)]Man(b1-4)GlcNAc(b1-4)GlcNAc
# Summary of the method: as §1
# [10] = target: Gal(b1-4)GlcNAc(b1-3)Gal(b1-4)GlcNAc(b1-2)[Gal(b1-4)GlcNAc(b1-3)Gal(b1-4)GlcNAc(b1-6)]Man(a1-6)[Gal(b1-4)GlcNAc(b1-3)Gal(b1-4)GlcNAc(b1-2)Man(a1-3)]Man(b1-4)GlcNAc(b1-4)[Fuc(a1-6)]GlcNAc
# Summary of the method: as §1
# [11] = target: Gal(b1-4)GlcNAc(b1-3)Gal(b1-4)GlcNAc(b1-3)Gal(b1-4)GlcNAc
# Summary of the method: as §1
# [12] = target: Gal(b1-4)GlcNAc(b1-3)Gal(b1-4)GlcNAc(b1-3)Gal(b1-4)GlcNAc(b1-2)Man(a1-3)[Gal(b1-4)GlcNAc(b1-3)Gal(b1-4)GlcNAc(b1-3)Gal(b1-4)GlcNAc(b1-2)Man(a1-6)]Man(b1-4)GlcNAc(b1-4)GlcNAc
# Summary of the method: as §1
# [13] = target: Gal(b1-4)GlcNAc(b1-3)Gal(b1-4)GlcNAc(b1-3)Gal(b1-4)GlcNAc(b1-2)Man(a1-3)[Gal(b1-4)GlcNAc(b1-3)Gal(b1-4)GlcNAc(b1-3)Gal(b1-4)GlcNAc(b1-2)Man(a1-6)]Man(b1-4)GlcNAc(b1-4)[Fuc(a1-6)]GlcNAc
# Summary of the method: as §1
# [14] = target: Gal(b1-4)GlcNAc(b1-3)Gal(b1-4)GlcNAc(b1-3)Gal(b1-4)GlcNAc(b1-2)[Gal(b1-4)GlcNAc(b1-3)Gal(b1-4)GlcNAc(b1-3)Gal(b1-4)GlcNAc(b1-6)]Man(a1-6)[Gal(b1-4)GlcNAc(b1-3)Gal(b1-4)GlcNAc(b1-3)Gal(b1-4)GlcNAc(b1-2)Man(a1-3)]Man(b1-4)GlcNAc(b1-4)[Fuc(a1-6)]GlcNAc
# Summary of the method: as §1
# [15] = target: Gal(b1-4)GlcNAc(b1-3)Gal(b1-4)GlcNAc(b1-3)Gal(b1-4)GlcNAc(b1-3)Gal(b1-4)GlcNAc(b1-2)Man(a1-3)[Gal(b1-4)GlcNAc(b1-3)Gal(b1-4)GlcNAc(b1-3)Gal(b1-4)GlcNAc(b1-3)Gal(b1-4)GlcNAc(b1-2)Man(a1-6)]Man(b1-4)GlcNAc(b1-4)GlcNAc
# Summary of the method: as §1
# [16] = target: Gal(b1-4)GlcNAc(b1-3)Gal(b1-4)GlcNAc(b1-3)Gal(b1-4)GlcNAc(b1-3)Gal(b1-4)GlcNAc(b1-2)Man(a1-3)[Gal(b1-4)GlcNAc(b1-3)Gal(b1-4)GlcNAc(b1-3)Gal(b1-4)GlcNAc(b1-3)Gal(b1-4)GlcNAc(b1-2)Man(a1-6)]Man(b1-4)GlcNAc(b1-4)[Fuc(a1-6)]GlcNAc
# Summary of the method: as §1
# [17] = target: Gal(b1-4)GlcNAc(b1-3)Gal(b1-4)GlcNAc(b1-3)Gal(b1-4)GlcNAc(b1-3)Gal(b1-4)GlcNAc(b1-2)[Gal(b1-4)GlcNAc(b1-3)Gal(b1-4)GlcNAc(b1-3)Gal(b1-4)GlcNAc(b1-3)Gal(b1-4)GlcNAc(b1-6)]Man(a1-6)[Gal(b1-4)GlcNAc(b1-3)Gal(b1-4)GlcNAc(b1-3)Gal(b1-4)GlcNAc(b1-3)Gal(b1-4)GlcNAc(b1-2)Man(a1-3)]Man(b1-4)GlcNAc(b1-4)[Fuc(a1-6)]GlcNAc
# Summary of the method: as §1
# [18] = target: Gal(b1-4)GlcNAc(b1-3)Gal(b1-4)GlcNAc(b1-3)Gal(b1-4)GlcNAc(b1-3)Gal(b1-4)GlcNAc(b1-3)Gal(b1-4)GlcNAc(b1-2)Man(a1-3)[Gal(b1-4)GlcNAc(b1-3)Gal(b1-4)GlcNAc(b1-3)Gal(b1-4)GlcNAc(b1-3)Gal(b1-4)GlcNAc(b1-3)Gal(b1-4)GlcNAc(b1-2)Man(a1-6)]Man(b1-4)GlcNAc(b1-4)GlcNAc
# Summary of the method: as §1
# [19] = target: Gal(b1-4)GlcNAc(b1-3)Gal(b1-4)GlcNAc(b1-3)Gal(b1-4)GlcNAc(b1-3)Gal(b1-4)GlcNAc(b1-3)Gal(b1-4)GlcNAc(b1-2)Man(a1-3)[Gal(b1-4)GlcNAc(b1-3)Gal(b1-4)GlcNAc(b1-3)Gal(b1-4)GlcNAc(b1-3)Gal(b1-4)GlcNAc(b1-3)Gal(b1-4)GlcNAc(b1-2)Man(a1-6)]Man(b1-4)GlcNAc(b1-4)[Fuc(a1-6)]GlcNAc
# Summary of the method: as §1
# [20] = target: Gal(b1-4)GlcNAc(b1-3)Gal(b1-4)GlcNAc(b1-3)Gal(b1-4)GlcNAc(b1-3)Gal(b1-4)GlcNAc(b1-3)Gal(b1-4)GlcNAc(b1-2)[Gal(b1-4)GlcNAc(b1-3)Gal(b1-4)GlcNAc(b1-3)Gal(b1-4)GlcNAc(b1-3)Gal(b1-4)GlcNAc(b1-3)Gal(b1-4)GlcNAc(b1-6)]Man(a1-6)[Gal(b1-4)GlcNAc(b1-3)Gal(b1-4)GlcNAc(b1-3)Gal(b1-4)GlcNAc(b1-3)Gal(b1-4)GlcNAc(b1-3)Gal(b1-4)GlcNAc(b1-2)Man(a1-3)]Man(b1-4)GlcNAc(b1-4)[Fuc(a1-6)]GlcNAc
# Summary of the method: as §1
# [21] = target: Gal(b1-4)GlcNAc(b1-3)Gal(b1-4)GlcNAc(b1-3)Gal(b1-4)GlcNAc(b1-3)Gal(b1-4)GlcNAc(b1-3)Gal(b1-4)GlcNAc(b1-3)Gal(b1-4)GlcNAc(b1-2)Man(a1-3)[Gal(b1-4)GlcNAc(b1-3)Gal(b1-4)GlcNAc(b1-3)Gal(b1-4)GlcNAc(b1-3)Gal(b1-4)GlcNAc(b1-3)Gal(b1-4)GlcNAc(b1-3)Gal(b1-4)GlcNAc(b1-2)Man(a1-6)]Man(b1-4)GlcNAc(b1-4)GlcNAc
# Summary of the method: as §1
# [22] = target: Gal(b1-4)GlcNAc(b1-3)Gal(b1-4)GlcNAc(b1-3)GalNAc
# Summary of the method: as §1
# [23] = target: Gal(b1-4)GlcNAc(b1-3)Gal(b1-4)GlcNAc(b1-3)[Gal(b1-4)GlcNAc(b1-3)Gal(b1-4)GlcNAc(b1-6)]GalNAc
# Summary of the method: as §1
# [24] = target: Gal(b1-4)GlcNAc(b1-3)Gal(b1-4)GlcNAc(b1-6)[Gal(b1-3)]GalNAc
# Summary of the method: as §1
# [25] = target: Gal(b1-4)GlcNAc(b1-3)Gal(b1-4)[Fuc(a1-3)]GlcNAc(b1-3)Gal(b1-4)[Fuc(a1-3)]GlcNAc
# Summary of the method: as §1
# [26] = target: Gal(b1-4)GlcNAc(b1-3)GalNAc
# Summary of the method: as §1
# [27] = target: Gal(b1-4)GlcNAc(b1-3)[Fuc(a1-3)GlcNAc(b1-6)]Gal(b1-4)Glc
# Summary of the method: as §1
# [28] = target: Gal(b1-4)GlcNAc(b1-3)[Gal(b1-4)GlcNAc(b1-6)]Gal(b1-4)GlcNAc
# Summary of the method: as §1
# [29] = target: Gal(b1-4)GlcNAc(b1-3)[GlcNAc(b1-6)]Gal(b1-4)GlcNAc
# Summary of the method: as §1
# [30] = target: Gal(b1-4)GlcNAc(b1-6)Gal(b1-4)GlcNAc
# Summary of the method: as §1
# [31] = target: Gal(b1-4)GlcNAc(b1-6)GalNAc
# Summary of the method: as §1
# [32] = target: Gal(b1-4)GlcNAc(b1-6)[Gal(b1-3)]GalNAc
# Summary of the method: as §1
# [33] = target: Gal(b1-4)GlcNAc(b1-6)[Gal(b1-4)GlcNAc(b1-3)]GalNAc
# Summary of the method: as §1
# Gal(b1-4)GlcNAc6P = target: Gal(b1-4)GlcNAc6P
# Summary of the method: as §1
# Gal(b1-6)Gal = target: Gal(b1-6)Gal
# Summary of the method: as §1
# Gal3S(b1-3)GalNAc = target: Gal3S(b1-3)GalNAc
# Summary of the method: as §1
# Gal3S(b1-3)GlcNAc = target: Gal3S(b1-3)GlcNAc
# Summary of the method: as §1
# [34] = target: Gal3S(b1-3)[Fuc(a1-4)]GlcNAc
# Summary of the method: as §1
binder,measurement,setting,value
B1,glycan array binding signal (z-score),[1],0.227
same,glycan array binding signal (z-score),[2],-0.151
same,glycan array binding signal (z-score),[3],-0.04
same,glycan array binding signal (z-score),[4],0.422
same,glycan array binding signal (z-score),[5],-0.301
same,glycan array binding signal (z-score),[6],-0.054
same,glycan array binding signal (z-score),[7],8.04
same,glycan array binding signal (z-score),[8],0.725
same,glycan array binding signal (z-score),[9],0.385
same,glycan array binding signal (z-score),[10],0.249
same,glycan array binding signal (z-score),[11],-0.246
same,glycan array binding signal (z-score),[12],0.658
same,glycan array binding signal (z-score),[13],0.765
same,glycan array binding signal (z-score),[14],0.165
same,glycan array binding signal (z-score),[15],-0.055
same,glycan array binding signal (z-score),[16],0.041
same,glycan array binding signal (z-score),[17],0.192
same,glycan array binding signal (z-score),[18],1.16
same,glycan array binding signal (z-score),[19],0.995
same,glycan array binding signal (z-score),[20],0.937
same,glycan array binding signal (z-score),[21],0.259
same,glycan array binding signal (z-score),[22],0.227
same,glycan array binding signal (z-score),[23],0.351
same,glycan array binding signal (z-score),[24],0.001
same,glycan array binding signal (z-score),[25],-0.383
same,glycan array binding signal (z-score),[26],-0.387
same,glycan array binding signal (z-score),[27],-0.069
same,glycan array binding signal (z-score),[28],-0.023
same,glycan array binding signal (z-score),[29],-0.008
same,glycan array binding signal (z-score),[30],-0.033
same,glycan array binding signal (z-score),[31],-0.065
same,glycan array binding signal (z-score),[32],-0.289
same,glycan array binding signal (z-score),[33],0.349
same,glycan array binding signal (z-score),Gal(b1-4)GlcNAc6P,-0.307
same,glycan array binding signal (z-score),Gal(b1-6)Gal,-0.372
same,glycan array binding signal (z-score),Gal3S(b1-3)GalNAc,-0.176
same,glycan array binding signal (z-score),Gal3S(b1-3)GlcNAc,0.08
same,glycan array binding signal (z-score),[34],-0.207
